The chains are these.
B1: LINE1-mini (parent)
chain: GGCAGAGCUCAACACAGCGUGGCAAAGUGGCUGUGGCUAGACUGCC

Read counts are not given, so values of variants with three or more changes are uncertain.

Variants of B1 are the subject of the data set. Put plainly: self-cleavage, relative activity (ratio to wild type); higher = more cleavage; in vitro, sequencing; the parent is a self-cleaving ribozyme.
On to UGCAGAGCUCAACACUGCGUGGCAAAGUGGCUGUGGCUAGACUUCA, for which the self-cleavage was found to be 0.02. As for UGCAGAGCUCAACACAGCGUGGCUAAGUGGCUGUGGCUCGACUGCC, the figure is 0.03; as for UGCAGAGCUCAUCACAGCGUGGCACAGUGGCUGUGGCUAGACUGCC, 0.06. With UGCAGAGCUCAACACAGCGUGGCGAAGUGGCCGUCGCUAAACUGCC, the self-cleavage came out at 0.

For the variant UGCAGAGCUCAGCACAGUGUGGCGUAGUGGCUGUGGGUAGUCUGCC, the self-cleavage stood at 0.02. Take UGCAGAGCUCAACACGGCGUGGUAAAGUGGCUGUUGCUAGACUGCC: the self-cleavage turned out to be 0.05. As for UGCAGAGCUCAGAACAGCGUGGCAAAGUAGCUGUGACUAGACUGCC, the self-cleavage was determined as 0.03.

As for UGCAGAGCUCAUGACAGCGUGGCAAAGUGGCUGUGGCUAGACUGCC, the self-cleavage was 0.01. As for UGCAGAGCUCAACACAGCGUGGCUAGGUGGCUGUGGCUAGACCGCC, the figure is 0.03; as for UGCAGAGCUCAACACCGCGUGGGAAAGUUGCUGUGGCUAGACUGCC, 0.09; as for UGCAGAGCUCAACACAGCGUGGCGAAGUGGCUGUGACUAGGCUGCC, 0.04. As for UGCAGAGCUCAACUCAGCGUGGCAAAGUGGCUGUGCCUAGACUGCU, the self-cleavage is 0.03. The same measure for UGCAGAGCUCAACACUGCGUGGCAAAGUGGUUGUGGCUAGACUGCC: 0.04; for UGCAGAGCUCAACACGGCUUGGCAAAAUGGCUGUGGCUAGACUGCC: 0.1.

For the variant UGCAGAGCUCAACCCAGGGUGGCAAAUUGGCUGUGGCUAGACUGCC, the self-cleavage came out at 0.02. With UGCAGAGCUCAACACAGCGUGGCUAAGUGGCUGUGGCUAGACUGCA, the self-cleavage was determined as 0.62. With UGCAGAGCUCAACGCAGCGUGGCAAAGUGGCUGUGGCUAGACUGAC, the self-cleavage is 0.05. As for UGCAGAGCUCAACGUAGGGUGCGAAAGUGGCUGUGGCCAGAUUGCC, the figure is 0.02; as for UGCAGAGCUCAACACUGCGUGGCAAAGUGGCUGUAGCUAGACUGCC, 0.05. The same measure for UGCAGAGCUCAGCACAGCGUCGCAAAGAGGCUGUGGCUAGACUGCC: 0; for UGCAGAGCUCAGCACAGCGUGGCAAAGUGGCUGUAGCUAGACAGCC: 0.01; for UGCAGAGCUCAACACAGCGUGGCGAACUGGCUGUGGCUAGACUGCC: 0.17. Regarding UGCAGAGCUCAGCACAGCGUGGCAAAGUGGCUGAGGCUAGACUGGC, the self-cleavage is 0.

For UGCAGAGCUCAGCAAAGUGUGGCAAAGUCGCUGUGGCCAGACUGCC, the self-cleavage was found to be 0.01. As for UGCAGAGCUCAGCACAGCGUGGCAAACCGGCUGUGGCUAGACUGCC, the figure is 0.01; as for UGCAGAGCUCAACACAGCGUGGCAGAGUGGCUGUGGCUAGAAUGCC, 0.03. On to UGCAGAGCUCAACACUGCGUGGCAAAGUGGCUUUGGCUAGACUGCC, for which the self-cleavage was found to be 0.06.

With UGCAGAGCUCAACACAGCGUGGCGAAGUCGCCGUGGCUAGACUGCC, the self-cleavage is 0.08. UGCAGAGCUCAACCCAGCGUGGCCAAGUGGCUGUGGCUAGACUGCC: the self-cleavage came to 0.09. Regarding UGCAGAGCUCAGCACAGCGUGGCAAAGUGGCUGUGGAUAGACUGCC, the self-cleavage stood at 0.05. As for UGCAGAGCUCAACCCAGCGUGGCACAGUGGCUGGGGCUAGACUGCC, the figure is 0.05. The same measure for UGCAGAGCUCAACCAGGCGUGGCCAAGUGGCUGUGGCUAGACUGCC: 0.01; for UGCAGAGCUCAACACGGCGUUGCAAAGUGGCUGUGGCUAGACUGCC: 0.23; for UGCAGAGCUCAGCACAGCGGCGCAAAGUGGCUGUGGCUAGAGUGCC: 0.01.

Take UGCAGAGCUCAACACCGCGUGGCAAAGUGGCUGUUGCUAGAGUGCC: the self-cleavage was determined as 0.03.

Turning to UGCAGAGCUCAACGCAGCGUGGCAAAGGGACUGUGGCUAGACUGAC, the self-cleavage was found to be 0.01. As for UGCAGAGCUCAACACUACGUGGCAAAGUGGCUGUGGCUAGACUGCC, the figure is 0.12.

In the case of UGCAGAGCUCAACACUUCGUGGCAAAGUGGCUGUGGCUAGACUGCC, the self-cleavage is 0.03.

For UGCAGAGCUCAACACUACGUGGCAAAGUGGCUGUGGCUAUACUGCC, the self-cleavage was found to be 0.06. Turning to UGCAGAGCUCAUCACAGCGUGGCAAAGUGGCUGUGGCAAGACUGCC, the self-cleavage was 0.05. UGCAGAGCUCAUCACAGCUUGUCAAAGUGGCUGUGGCUAGACUGCC: the self-cleavage was determined as 0.01.

Take UGCAGAGCUCAACACAGCGUGGCAGAGUGGCUGUGACUAGACUUCC: the self-cleavage was found to be 0.08. As for UGCAGAGCUCAACACAGCGUGGCACAGUGGCUGUGGCUAAACCGCC, the self-cleavage was 0.01. UGCAGAGCUCAACACAGCGUGGCAUAGUGGCGGUGGCAAGACUACC: the self-cleavage was 0.09. For UGCAGAGCUCAACACAGCGUGGCGAAGUUGCUGUGGCUAGACUGCC, the self-cleavage came to 0.48.

As for UGCAGAGCUCAACACAGCGUGGCAACGUGGCUGUGGCUGGACUGCC, the self-cleavage is 0.01. Turning to UGCAGAGCUCAACUCAGCGUGGCAAAGUGGCUUUGGCUAGACUGCC, the self-cleavage turned out to be 0.02. Regarding UGCAGAGCUCAACACUGCGUGGCAAAGUGGCUGUGGCUAGACUGCA, the self-cleavage was found to be 0.04. As for UGCAGAGCUCAUCACAGCGUGGCAAAUUGGCUGUGGCUAGACUGCC, the self-cleavage was 0.02.

In the case of UGCAGAGCUCAACUCAGCGUGGCAAAGUGGCUCUGGCUAGAUUGCC, the self-cleavage came out at 0.05.

As for UGCAGAGCUCAACACGGCGCGGCAAAGUGGCUGUGGCUAGACUGCG, the self-cleavage is 0.41. With UGCAGAGCUCAUCACAGCGUUGCAAAAUGGCUCUGGCUAGAUUGCC, the self-cleavage was found to be 0.01.

Take UGCAGAGCUCAACACUGCGUGGCAAAGUGGCUGGGGCUAGACUGCC: the self-cleavage was found to be 0.01. The same measure for UGCAGAGCUCAACGCAGUGUGGCAAAGUGACUGUGGCUAGACUGCC: 0.18; for UGCAGAGCUCAACACAGCGUGGCCAAGUGGCUGUGGAUAGACUGCC: 0.15; for UGCAGAGCUCAACACAGCGUGGCAUAGUGGCUGUGGCUAGCCUGCC: 0.02.

The values above are taken from the RNAGym collection of RNA variant scans (doi:10.7554/elife.90254).
